# Hit rate of the full screen: of about 420,000 compounds, about 64,000 (15%) were called active. Inconclusive means that the source gave no clear call. Such entries were picked first, then a sample of the others. Calls follow the shape of the dose curve; as a rule, active = well fitted inhibition curve with a large enough effect; inconclusive = small, poorly fitted or top-dose-only effect; inactive = flat fitted curve, though single readings scatter. A potency beside an inconclusive call is a rough fit, not a confirmed value.
# Assay: qHTS for Inhibitors of human tyrosyl-DNA phosphodiesterase 1 (TDP1): qHTS in cells in absence of CPT; also: nearly all actives have a fitted effect of over 55% in size
# Conditions: DT40 Tdp1-/- hTDP1 cells, no CPT, ATP luminescence, 48 h; activity change, negative = growth inhibition: at 46.2 µM (top of the series) unless noted
# Procedure, shortened: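 Chicken DT40 Tdp1-/- cells complemented with human TDP1, screened without camptothecin (DMSO vehicle only), 400 cells/well. Compounds pin-transferred, cells incubated at 37 °C for at least 48 hr. Growth read as ATP-dependent luminescence (CellTiter-Glo, 30 min at RT).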
# % is scaled to controls: 0 for no effect and ±100 for the full control effect; potency is read from the fitted curve at half-maximal effect; tags tell the direction and shape of the fitted curve.
SMILES,Potency,"activity change, negative = growth inhibition"
CCOC(=O)c1cccc(NC(=O)CCc2c(C)nn(-c3ccc(N4CCCCC4)nn3)c2C)c1,active: 23.1 µM,
Cc1oc2cc3oc(=O)c(CCC(=O)NCCCN4CCCC4=O)c(C)c3cc2c1C,"inconclusive: 18.4 µM [inhibitor, single point]",
CCCCN1C(=O)c2[nH]nc(-c3ccccc3O)c2C1c1ccc(OCc2ccccc2)c(OC)c1 (stereo not drawn),active: 20.6 µM,
CCN(CC)CCCNC(=O)c1sc2nc(-c3ccc(F)cc3)cn2c1C,"inconclusive: 25.9 µM [inhibitor, single point]",
COc1ccc(S(=O)(=O)NCC(=O)N(CC(=O)NCC2CCCO2)c2cc(C)ccc2C)cc1 (stereo not drawn),"inconclusive: 14.6 µM [inhibitor, partial curve]",
COc1ccc(Cn2ccc3nc(C)c(C(=O)N4CCN(c5ccc(F)cc5)CC4)cc3c2=O)cc1,active: 14.6 µM,
CN(Cc1ccccc1)C(=O)c1cccc(C(=O)N(C)Cc2ccccc2)c1,"inconclusive: 29.1 µM [inhibitor, single point]",
O=C(NCC1OCCc2ccccc21)c1ccc(NC(=O)c2ccccc2Cl)cc1 (stereo not drawn),"inconclusive: 18.4 µM [inhibitor, partial curve, poor fit]",
CCOc1ccccc1NC(=O)CSc1nnc(Cc2ccc(OC)cc2)c(=O)n1N,"inconclusive: 29.1 µM [inhibitor, single point]",
CCOC(=O)c1ccc2ncc(C(=O)OCC)c(NCCCN3CCOCC3)c2c1,"inconclusive: 29.1 µM [inhibitor, single point]",
Cc1cc(C)n(CCNC(=O)CCc2nnc(CCc3ccccc3)o2)n1,"inconclusive: 23.1 µM [inhibitor, single point]",
Cc1cc(Cl)ccc1NC(=S)NCc1ccccc1Cl,active: 25.9 µM,
CC(C)(C)C(=O)NC1(C(F)(F)F)NC(=O)N(c2ccccc2F)C1=O (stereo not drawn),,inactive: 11.3%
CCOC(=O)C1=C[C@@H](CC)N(S(=O)(=O)c2ccccc2)[C@H]1c1ccccc1,active: 18.4 µM,
CCOC(=O)CSc1nc(-c2ccccc2)ns1,"inconclusive: 25.9 µM [inhibitor, single point]",
O=[N+]([O-])c1cccc(C=NNC(=S)NC23CC4CC(CC(C4)C2)C3)c1,"inconclusive: 29.1 µM [inhibitor, single point]",
COC(=O)[C@H]1Cc2c([nH]c3ccccc23)CN1C(=O)COc1ccc2c(C)cc(=O)oc2c1,,inconclusive: -38.3% [inhibitor] [at 9.04 µM]
COc1cccc(CC(=O)NN2C(=O)NC3(CCCCC3)C2=O)c1,,inactive: 0.799%
